These are yes or no findings as the source states them, for the method shown. Binding seen in cells or lysates may run through a third protein. Some results given as binding are weak or reduced against the parent protein; the word gives no strength.

Sequences of proteins named here, by UniProt entry; tags and fusion partners are left off.
UniProt Q07812: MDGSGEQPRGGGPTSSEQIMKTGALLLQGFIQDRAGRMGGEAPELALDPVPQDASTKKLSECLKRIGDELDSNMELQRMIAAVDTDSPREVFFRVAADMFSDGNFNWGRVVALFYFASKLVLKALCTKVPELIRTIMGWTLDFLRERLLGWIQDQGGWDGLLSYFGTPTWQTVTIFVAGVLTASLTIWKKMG

Consider three molecules from paper PMC3040668.

Assay [1] has as its target Bax (human (endogenous in A549)) (UniProt Q07812). Nature of the assay: cross-linking; crude mitochondria from doxycycline-induced A549-Capsid or A549-Luciferase cells, with or without staurosporine for 6 h, cross-linked with 10 mM BMH for 30 min at room temperature; immunoblots with antibodies to Bax and capsid. Background: A western blot detects proteins with antibodies after separation by electrophoresis.

Assay [2] has as its target T1, Bak (human (endogenous in A549)) (UniProt Q16611).
T1 sequence: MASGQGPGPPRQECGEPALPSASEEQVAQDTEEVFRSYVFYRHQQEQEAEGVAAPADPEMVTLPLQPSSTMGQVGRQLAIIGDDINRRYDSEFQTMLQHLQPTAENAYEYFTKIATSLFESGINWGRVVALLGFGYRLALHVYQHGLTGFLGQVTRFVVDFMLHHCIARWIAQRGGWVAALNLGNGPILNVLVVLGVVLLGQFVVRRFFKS
Nature of the assay: co-IP; lysates of A549 cells infected with RV (M33), staurosporine for 0 to 6 h from 42 h; IP with antibodies to capsid, Bax or Bak overnight at 4°C, immunoblot; lysis in 1% CHAPS or 1% NP-40 buffer with 150 mM NaCl.

For assay [3], the target named is Bax (human (endogenous in A549)) (UniProt Q07812). The description is as above.
For assay [4] the target is unchanged. Nature of the assay: co-IP; lysates of A549 cells transiently expressing capsid constructs; IP with rabbit anti-Bax under non-denaturing conditions, immunoblot with goat anti-RV and mouse anti-Bax.

B1: Rubella virus capsid protein (stably transduced A549-Capsid cells, doxycycline-induced) (protein, UniProt P08563 1-300)
chain: MASTTPITMEDLQKALEAQSRALRAGLAAGASQSRRPRPPRQRDSSTSGDDSGRDSGGPRRRRGNRGRGQRKDWSRAPPPPEERQESRSQTPAPKPSRAPPQQPQPPRMQTGRGGSAPRPELGPPTNPFQAAVARGLRPPLHDPDTEAPTEACVTSWLWSEGEGAVFYRVDLHFTNLGTPPLDEDGRWDPALMYNPCGPEPPAHVVRAYNQPAGDVRGVWGKGERTYAEQDFRVGGTRWHRLLRMPVRGLDGDTAPLPPHTTERIETRSARHPWRIRFGAPQAFLAGLLLAAVAVGTARA
B1: the binding result in assay [1] was “binds”.

B2: Rubella virus capsid protein (in cells infected with the M33 strain) (protein, UniProt P08563 1-300)
chain: MASTTPITMEDLQKALEAQSRALRAGLAAGASQSRRPRPPRQRDSSTSGDDSGRDSGGPRRRRGNRGRGQRKDWSRAPPPPEERQESRSQTPAPKPSRAPPQQPQPPRMQTGRGGSAPRPELGPPTNPFQAAVARGLRPPLHDPDTEAPTEACVTSWLWSEGEGAVFYRVDLHFTNLGTPPLDEDGRWDPALMYNPCGPEPPAHVVRAYNQPAGDVRGVWGKGERTYAEQDFRVGGTRWHRLLRMPVRGLDGDTAPLPPHTTERIETRSARHPWRIRFGAPQAFLAGLLLAAVAVGTARA
As for B2, the binding result was “no binding” in assay [2] and “binds” in assay [3].

B3: Rubella virus capsid protein (pCMV5-capsid, transiently transfected) (protein, UniProt P08563 1-300)
chain: MASTTPITMEDLQKALEAQSRALRAGLAAGASQSRRPRPPRQRDSSTSGDDSGRDSGGPRRRRGNRGRGQRKDWSRAPPPPEERQESRSQTPAPKPSRAPPQQPQPPRMQTGRGGSAPRPELGPPTNPFQAAVARGLRPPLHDPDTEAPTEACVTSWLWSEGEGAVFYRVDLHFTNLGTPPLDEDGRWDPALMYNPCGPEPPAHVVRAYNQPAGDVRGVWGKGERTYAEQDFRVGGTRWHRLLRMPVRGLDGDTAPLPPHTTERIETRSARHPWRIRFGAPQAFLAGLLLAAVAVGTARA
Take B3: the binding result in assay [4] was “binds”.
